# Measured values: PubChem BioAssay AID485294 (National Center for Advancing Translational Sciences (NCATS), 2010)
# Hit rate of the full screen: of about 370,000 compounds, about 150 (0.041%) were called active. This list was built around the results that the source calls inconclusive (neither active nor inactive); the mix of calls is not that of the screen. The call rests on the fitted dose curve; in most records, active means well fitted inhibition curve with a large enough effect; inconclusive means small, poorly fitted or top-dose-only effect; inactive means flat fitted curve, though single readings scatter. No potency is given beside an inconclusive call; the fits are too rough.
# Target: Beta-lactamase (Escherichia coli (strain K12)) (UniProt P00811)
# Assay: qHTS Inhibitors of AmpC Beta-Lactamase (assay with detergent); further: nearly all actives have a fitted effect of over 25% in size;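 on activity change, negative = inhibition: 0% = no-compound wells and -100% = no-enzyme wells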
# Conditions: AmpC hydrolysis of nitrocefin, absorbance 480 nm, 0.01% Triton; activity change, negative = inhibition: at 114 µM (top of the series)
# Summary of the method: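 AmpC (5.3 nM in the dispensed reagent) in 20 mM phosphate pH 7.0 with 0.01% (detergent screen) or 0.0001% Triton X-100 was preincubated with compounds for 15 min at room temperature. Nitrocefin was then added from an 800 uM solution, and hydrolysis was followed at 480 nm.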
# Potency means the concentration at half of the fitted maximal effect; tags describe the fitted curve by direction and shape.
# Sequence of UniProt P00811 (P00811 whole entry, looked up): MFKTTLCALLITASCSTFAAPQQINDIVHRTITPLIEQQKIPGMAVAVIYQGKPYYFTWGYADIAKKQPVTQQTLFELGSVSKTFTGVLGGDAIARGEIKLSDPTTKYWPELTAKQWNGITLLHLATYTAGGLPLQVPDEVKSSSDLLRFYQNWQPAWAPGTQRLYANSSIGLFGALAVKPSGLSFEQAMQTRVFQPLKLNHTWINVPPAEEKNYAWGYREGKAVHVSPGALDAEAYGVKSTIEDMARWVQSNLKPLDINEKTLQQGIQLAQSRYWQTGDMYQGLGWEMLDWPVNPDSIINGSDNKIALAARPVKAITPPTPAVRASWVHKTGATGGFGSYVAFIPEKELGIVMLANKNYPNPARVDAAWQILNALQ
Structure (SMILES),Potency,"activity change, negative = inhibition"
COC(=O)c1c(NC(=O)C2(C)Cc3ccccc3C(=O)O2)sc2c1CCCC2 (stereo unspecified),"inconclusive [inhibitor, full curve, poor fit]",–
CCC(C)NC(=O)CN1C(=O)C(CC)Sc2ccccc21 (stereo unspecified),"inconclusive [inhibitor, single point]",–
O=C(c1ccc(-n2ccnc2)cc1)N1CCCC(CO)(Cc2cccc(Cl)c2)C1 (stereo unspecified),"inconclusive [inhibitor, single point]",–
Cc1nc2ccccc2cc1C(=O)N(C)Cc1ccccc1,"inconclusive [inhibitor, full curve, poor fit]",–
COCCn1c(N)c(C(=O)NCc2cccs2)c2nc3ccccc3nc21,–,inactive: -10.3%
CCCS(=O)(=O)N1CCC(C(=O)NCCN2CCCC2)CC1,"inconclusive [inhibitor, full curve]",–
COc1cccc(-n2c(SCC(N)=O)nc3ccccc3c2=O)c1,"inconclusive [inhibitor, partial curve]",–
Cc1ccc(/C=N/NC(=O)c2csc3c2CCCC3)cc1,"inconclusive [inhibitor, single point]",–
CNC(=O)C1C2C=CC3(O2)C1C(=O)N(C1CC1)C3C(=O)NCc1ccc(OC)cc1 (stereo unspecified),"inconclusive [inhibitor, full curve]",–
Cc1ccc(/C=C/c2nc3ccccc3c(=O)n2CCc2ccccc2)cc1,"inconclusive [inhibitor, full curve, poor fit]",–
CCCc1cc(=O)oc2c(C)c(OCC(=O)NCCN3CCOCC3)ccc12,"inconclusive [inhibitor, full curve, poor fit]",–
COc1ccc(OC)c(NC(=O)Cn2cnc3c(cnn3-c3ccccc3)c2=O)c1,"inconclusive [inhibitor, full curve, poor fit]",–
CCN1c2nc3c(C)cccn3c(=O)c2CC2(C(=O)N(C)C(=O)N(C)C2=O)C1C (stereo unspecified),"inconclusive [inhibitor, partial curve]",–
O=C(CN(Cc1ccccc1F)C(=O)Cn1nnc(-c2cccs2)n1)NCC1CCCO1 (stereo unspecified),"inconclusive [inhibitor, full curve, poor fit]",–
COc1ccc(O[C@H]2C=C[C@@H](c3ccccc3)O[C@@H]2COC(=O)CC/C(C)=N/OC[C@@H](O)[C@H]2O[C@@H]3OC(C)(C)O[C@@H]3[C@H]2O)cc1,"inconclusive [inhibitor, full curve, poor fit]",–
C=CCn1c(-c2cccn(Cc3cccc(Cl)c3)c2=O)n[nH]c1=S,"inconclusive [inhibitor, single point]",–
